Data reported in paper PMC4336329 (PLoS ONE, 2015).
The whole screen tested about 310,000 compounds, of which about 2,200 (0.71%) showed an effect of 50% or more. Effects have a minus sign here. The list shows a part of the results.

What follows are molecules tested against human ether-à-go-go-related gene (hERG) potassium channel (human, UniProt Q12809) (assay: primary screen, population patch clamp on CHO cells stably expressing hERG).
Chain of human ether-à-go-go-related gene (hERG) potassium channel (Q12809 whole entry, looked up): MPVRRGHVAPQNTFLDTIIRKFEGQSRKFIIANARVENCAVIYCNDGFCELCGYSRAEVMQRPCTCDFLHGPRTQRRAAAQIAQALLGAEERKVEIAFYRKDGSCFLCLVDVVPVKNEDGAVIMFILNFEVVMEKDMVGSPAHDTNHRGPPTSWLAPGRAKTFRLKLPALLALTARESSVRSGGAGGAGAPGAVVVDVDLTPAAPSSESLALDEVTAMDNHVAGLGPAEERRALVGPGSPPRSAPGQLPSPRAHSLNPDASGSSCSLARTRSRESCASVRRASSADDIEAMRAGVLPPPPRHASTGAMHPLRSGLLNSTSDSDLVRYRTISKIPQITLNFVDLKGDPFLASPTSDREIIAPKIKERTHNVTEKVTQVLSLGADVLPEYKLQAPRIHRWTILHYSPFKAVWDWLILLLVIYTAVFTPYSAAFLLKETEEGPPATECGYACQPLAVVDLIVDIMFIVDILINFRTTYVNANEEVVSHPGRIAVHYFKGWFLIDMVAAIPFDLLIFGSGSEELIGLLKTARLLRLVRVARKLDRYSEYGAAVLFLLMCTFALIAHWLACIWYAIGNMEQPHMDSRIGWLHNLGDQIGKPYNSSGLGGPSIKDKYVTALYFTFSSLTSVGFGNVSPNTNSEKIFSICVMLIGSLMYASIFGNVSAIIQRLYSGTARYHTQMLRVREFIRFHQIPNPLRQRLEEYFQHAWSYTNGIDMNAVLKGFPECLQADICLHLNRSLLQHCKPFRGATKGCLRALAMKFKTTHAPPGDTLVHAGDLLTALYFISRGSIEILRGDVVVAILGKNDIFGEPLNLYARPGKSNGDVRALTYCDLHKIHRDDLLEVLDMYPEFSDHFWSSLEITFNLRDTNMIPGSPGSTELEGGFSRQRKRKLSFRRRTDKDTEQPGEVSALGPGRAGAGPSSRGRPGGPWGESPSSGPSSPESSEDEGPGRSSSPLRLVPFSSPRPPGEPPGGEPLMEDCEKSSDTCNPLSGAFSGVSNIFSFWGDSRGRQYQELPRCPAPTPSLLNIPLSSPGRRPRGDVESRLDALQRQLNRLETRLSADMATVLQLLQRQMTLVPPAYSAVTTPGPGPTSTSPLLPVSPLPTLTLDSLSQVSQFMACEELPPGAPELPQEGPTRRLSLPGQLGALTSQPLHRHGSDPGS

SMILES | hERG current change (%, negative = inhibition) at 1uM [%]
O=C1CC(c2ccc(S(=O)(=O)NCc3ccccc3)cc2)CN1 (centres unmarked) | -2.32
Nn1c(Cc2cccc3ccccc23)nnc1SCc1ccc(Cl)c(Cl)c1 | 15.7
CC(C)C[C@H](NC(=O)OC(C)(C)C)C(=O)N[C@@H](CO)[C@H](O)[C@@H]1C[C@@H]1C(=O)N1CCCC1 | -7.56
Cc1nccn1-c1ccc(C(F)(F)F)cc1NC=O | 8.01
CCN(C(=O)CSc1nncn1-c1ccccc1)c1c(N)n(Cc2ccccc2)c(=O)[nH]c1=O | 10.7
Cc1ccc(CN2C(=O)C3CCCN3c3ccc(C#N)cc32)cc1 (centres unmarked) | 8.31
CSCCC(NC(=O)c1ccccc1)C(=O)N/N=C(\C)c1ccccc1 (centres unmarked) | 10.5
O=C(c1ccc(F)cc1)N1CCC(O)(c2cccnc2)CC1 | 12.8
CC(=O)Nc1ccc2c(c1)N(S(=O)(=O)c1cccs1)CCC2 | 10.7
CCCCN1C(=O)C2(NNc3ccccc3O2)c2ccccc21 (centres unmarked) | -15.7
C=CCn1c(SCC(=O)NC(=O)NC2CCCC2)nnc1C1CCCCC1 | 8.76
S=c1[nH]nc(-c2cc(-c3ccco3)[nH]n2)n1-c1ccccc1Cl | 4.15
CSc1ccccc1NC(=O)CSCc1ccc(C)cc1 | 8.04
Cc1ccc2[nH]c(C(=O)N3CCN(c4cccc(Cl)c4)CC3)cc2c1 | 13.2
Cc1ccc2c(CC(=O)Nc3ccc(N4CCN(C)CC4)cc3C)coc2c1 | -33.8
Cc1ccc(CSC2=Nc3ccccc3C3=NC(=O)CN23)cc1 | 5.85
C=C(C)Cc1c(C)c(C#N)c2[nH]c3ccccc3n2c1=O | 17.2
CC[N+](C)(C)CC/C=C1/c2ccccc2Sc2ccc(Cl)cc21.[Br-] | 7.35
CC(=O)N1c2ccccc2C(C)CC12CCCCC2 (centres unmarked) | 11.3
Clc1ccc(-n2ncc3c(NCc4ccc5c(c4)OCO5)ncnc32)cc1 | 4.63
O=C(Nc1ccc(S(=O)(=O)N2CCCC2)cc1)C1CC(=O)N(c2ccc(F)cc2)C1 (centres unmarked) | 12.3
Nc1cc(=O)nc(SCC(=O)N2CCN(c3ccccc3)CC2)n1-c1ccc(F)cc1 | 18.4
Cc1ccc(OCC(=O)N/N=C\c2ccc(-c3cccc(C(=O)O)c3)o2)c(C)c1 | 16.1

SMILES | hERG current change (%, negative = inhibition) at 1uM [%]
C=CCOc1ccc(CN(C)Cc2nc3cc(C(F)(F)F)ccc3c(=O)[nH]2)cc1 | -2.23
Cc1ccc(/C(O)=C2/C(=O)C(=O)N(CCN3CCOCC3)C2c2cccnc2)cc1 (centres unmarked) | 4.58
COc1ccc([N+](=O)[O-])cc1NC(=O)CSc1nncn1-c1ccccc1 | 4.78
CC1CCN(C(=O)CCc2nc3cc(S(=O)(=O)N(C)C)ccc3n2C)CC1 | 4.07
Cc1nc(N2CCN(Cc3ccccc3)CC2)nc2c1CCC2 | -2.74
O=C(Nc1ccc(Cl)cc1)N1CCOC12CCC1(CC2)OCCO1 | 11.2
Cc1cc(C)n(CCCNC(=O)c2ccco2)n1 | 6.93
CO/N=C1\CCn2c1c(C)c1ccccc12 | 13.2
O=C(CN1C(=O)c2cccnc2Oc2ccc(Cl)cc21)N1CCCCCC1 | -3.81
O=C(Nc1ccccc1O)c1ccc(C(=O)c2ccccc2)o1 | 10.8
COc1ccccc1C(=O)Nc1ccc(C(=O)O)cc1 | 11.3
O=C(Cn1nc(-c2ccc(Cl)cc2)ccc1=O)N1CCC2(CC1)OCCO2 | 1.05
CS(=O)(=O)n1nc(-c2ccc(Cl)cc2)nc1N | 10.9
O=C(CCc1ccccc1)Nc1cc(C(=O)O)cc(C(=O)O)c1 | 15.9
COc1cc(SC)ccc1C(=O)OCC(=O)NCC(C)C | 15.3
c1ccc2c(c1)OCC(c1csc3ncnc(N4CCOCC4)c13)O2 (centres unmarked) | 7.15
CCCn1cnc2sc(C(N)=O)c(C)c2c1=O | 13.3
CCOC(=O)CSc1nc2ccccc2c(=O)n1-c1ccc(C(=O)NCCOC)cc1 | -8.8
COc1ccc(Cl)cc1NC(=O)CSc1nnc(CNC(=O)c2cccs2)o1 | 10.1
CC(=O)c1sc2nsc(SCCN3CCCCC3)c2c1N | 9.52
O=C(CN1C(=O)S/C(=C\c2ccc(F)cc2)C1=O)NC1C=CS(=O)(=O)C1 (centres unmarked) | 14.6
Cc1cccc(OCC(=O)N/N=C/c2sc(=O)n(Cc3cccc(C(=O)O)c3)c2Cl)c1 | 6.17
COc1ccc2[nH]c3c(c2c1)CCN1C(=O)N([C@@H](C)C(=O)NCc2c(F)cccc2Cl)C(=O)[C@]31C | -3.2

SMILES | hERG current change (%, negative = inhibition) at 1uM [%]
N#CC1(NC(=O)COC(=O)CN2C(=O)c3ccccc3C2=O)CCCCC1 | -3.5
COC(=O)C1CCN(C(=O)c2oc3c(Cl)cc(C)cc3c2C)CC1 | 6.99
Br.O=C(Cn1c(NCCO)nc2ccccc21)c1ccc([N+](=O)[O-])cc1 | 20.2
CC(OC(=O)c1cc(Br)ccc1O)C(=O)NC1(C#N)CCCCC1 (centres unmarked) | 23.2
C/C(=N/NC(=O)c1ccc(C)s1)c1cccc(NC(=O)COc2ccc(Cl)cc2Cl)c1 | 9.03
CCC(c1nnc(SCC(=O)Nc2ccc(N3CCOCC3)cc2)n1Cc1ccccc1)N(C)C (centres unmarked) | 11.7
Cn1c(=O)oc2cc(S(=O)(=O)NCc3ccc(C(=O)O)cc3)ccc21 | 38.2
COC(=O)C1=C(c2cccc(OC)c2OC)C[C@@H]2CC[C@H]1N2C(=O)N1CCOCC1 | 9.06
CCc1ccc(NS(=O)(=O)c2ccc3[nH]cc(C(=O)N4CCCCC4)c(=O)c3c2)cc1 | 10.3
Nc1ccc2oc(=O)c3ccccc3c2c1 | 5.87
CC(C)(C)OC(=O)N1C[C@H](O)C[C@H]1C(=O)OCC(=O)c1ccc([N+](=O)[O-])cc1 | -33.8
Brc1ccccc1OCCCCCN1CCCC1 | -12.3
Cc1ccc(C(=O)OCN2C(=O)c3ccccc3C2=O)c(O)c1 | 15.7
O=c1[nH]c(=O)n(Cc2ccco2)c(O)c1/C=N/N1CCCCC1 | 10.6
CCC(C)[C@H](NC(=O)NCc1ccco1)C(=O)OC (some centres unmarked) | 3.92
CNC(=O)c1c(O)c2cccc3c2n(c1=O)CC3 | 3.88
O=C(CSc1nnc(-c2ccc(C(F)(F)F)cn2)o1)Nc1ccccc1Cl | 19.4
CC(C)Cn1c(=O)c2sccc2n2c(CCCC(=O)N3CCC(N4CCCCC4)CC3)nnc12 | 9.03
O=c1[nH]c(N/N=C/c2ccc(O)cc2)nc2ccccc12 | 13.9
Cc1nn(C(=O)c2ccco2)c(C)c1Sc1ccccc1 | 9.41
c1ccc(-c2nc[nH]c2-c2ccccc2)cc1 | -2.74
CCCOC(=O)c1ccc(NC(=O)c2cc(OC)c(OC)c(OC)c2Br)cc1 | 19.1
COc1ccccc1NC(=S)NCc1ccc2c(c1)OCO2 | 6.95

SMILES | hERG current change (%, negative = inhibition) at 1uM [%]
O=C(CCCCCn1c(=S)[nH]c2ccc(N3CCOCC3)cc2c1=O)NC1CCN(Cc2ccccc2)CC1 | 12.8
COc1ccc(NC(=O)CSc2nnnn2C2CCCCC2)c(OC)c1 | 10.4
NC(=O)NC(=O)CC1S/C(=N/N=C2/NC(=O)CS2)NC1=O (centres unmarked) | 12.6
CC(c1nnc(SCC(=O)Nc2ccc3[nH]c(=O)[nH]c3c2)n1Cc1ccccc1)N(C)C (centres unmarked) | 14.5
CCC(C)NC(=O)c1cnn2c1NC(c1cccs1)CC2C(F)(F)F (centres unmarked) | -7.24
CCOc1ccc(OCC)c(NC(=O)CCCN2C(=S)NC(C)(C)CC2C)c1 (centres unmarked) | 5.31
CC1CCCC(C)N1C(=O)COc1ccc(F)cc1 (centres unmarked) | 7.88
COC(=O)c1ccc(OCC(O)CNC2CCCC2)cc1.Cl (centres unmarked) | 11.7
O=C(OCc1nnc(-c2ccccc2)o1)c1cc(=O)[nH]c2ccccc12 | 21.3
O=C(Nc1ccc(S(=O)(=O)Nc2ncccn2)cc1)c1cncc(Br)c1 | 6.9
Cc1ccc2nc3c(c(C(=O)OCC(=O)NC4CCS(=O)(=O)C4)c2c1)CCCC3 (centres unmarked) | 9.2
Cc1ccccc1OCCn1c(CCNC(=O)C(C)C)nc2ccccc21 | 12.6
O=C(COc1ccc(Br)cc1Br)NC1CCS(=O)(=O)C1 (centres unmarked) | 5.54
COc1ccc(NC(=O)Nn2cnnc2)cc1OC | 12.9
Cc1ccc(NC(=O)C(C)N2CCOCC2)c(C(=O)c2ccccc2)c1 (centres unmarked) | -0.0491
OCCNc1nc(Nc2cc(Cl)ccc2OC2CCCC2)nc(N2CCCC2)n1 | 14.5
O=C(CSc1nnc2ccccn12)N1CCOCC1 | 12.1
COc1ccc(-c2noc(C3CCCN(S(=O)(=O)c4ccc(C)c(Cl)c4)C3)n2)cc1OC (centres unmarked) | -0.139
C=CCn1c(C(CCCC)CC(O)COCC(C)C)n[nH]c1=S (centres unmarked) | 15.8
COc1ccc(C)cc1NCc1ccc([N+](=O)[O-])cc1 | 11.2
